One assay concerns BT-549 breast. Nature of the assay: NCI-60 one-dose screen, 48 h (100 = growth as untreated, 0 = no growth, -100 = all killed). The conditions noted are these: 25 µM.
Another assay has as its system MDA-MB-435 melanoma. The assay is described as above. The following applies: 0.25 µM.

Where a structure was tested more than once in an assay, its records may differ in their call.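 Step 1: grow cells in 96-well plates. Step 2: add test compound at a single concentration. Step 3: incubate 48 h. Step 4: record percent growth.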 The source holds more than one record for some entries. This is not the full list of results. There may be further records. Rule for the calls: active = growth percent below 10; inactive = the rest. The screen tested this drug many times, at the concentration stated with the values; each value is one run. Marks such as (2×) count equal records among those shown.

Turning to `COc1cccc2c1C(=O)c1c(O)c3c(c(O)c1C2=O)C[C@@](O)(C(=O)CO)C[C@@H]3OC1CC(N)C(O)C(C)O1` (stereo not given in full), the growth result in the assay with BT-549 breast (runs of 1993) was “active: -72.7, -57.6, -68.4, -72.2, -71, -84.5, -14.3, -51.7, -81.8, -80.4, -85.7, -86.7, -79.7, -99.3, -63, -55.2, -39.1, -93.5, -80, -72.1, -76.4, -92.9, -68.7, -80.9, -96.9, -90.9, -70.2, -90.7, -62, -59.3, -1.77, -77.1, -48.6, -97.1, -69.3, -67.8%”; with BT-549 breast (runs of 1994) it was “active: -86.2, -54.8, -82.7, -77.6, -88.8, -84.4, -73.3, -85.3, -84, -91.1, -50.5, -54.3, -94.7, -96, -21.4, -90.3, -32.6, -57.4, -90.4, -53.9, -80.6, -63.5, -49.2, -35.4% and inactive: 71.9%”; with BT-549 breast (runs of 1995), “active: -19.5, -76.8, -92.1, -16.3, -99, -58.2, -69.7, -61.2, -83.7, -74.2, -62.5, -44.1 (2×), -69, -73.6, -36.7, -39.6, -24.2, -33.2, -84.2, -47.9, -51.9, -42.5, -44.6, -80.1, -69.2, -25.2, -50.5, -67.2, -85.5, -62.1, -90.5, -63, -67.8, -77.5, -84.9, -78, -61, -83.6%”; with BT-549 breast (runs of 1996), “active: -59.2, -29.8, -4.29, -27.2, -41.9, -63.3, -30.9, -33.9, -30.8, -61.7, -48.8, -64, -66, -67.4, -94.2, -46.2, -27.1, -37.7, -53.2, -63.8, -51.6, -26.6, -62.3, -46.3 (2×), -23.1, -35, -66.1, -73.6, -71.7, -84.2, -44.1, -39.8, -91.8, -55.9, -79.8, -40.8, -30.2, -81.8, 5.16, -59.5, -33.1, -52, -43.1, -82.2, -36.1, -68.2, -58, -74, -43.5, -49.8% and inactive: 109%”; in the assay on BT-549 breast (runs of 1997), “active: -48.9, -30.6, -32.9, -37.8, -57.9, 0.0854, -51.3, -80, -45, -73, -85.2, -67.8, -68.6, -49.1, -65.9, -73.1, -26.6, -76.7, -73.4, -32.8, -75.7, -59.3, -54.9, -55.7, -42.8, -55.4, -47.2, -74.1, -26.8, -53.4, -64.1, -43.1, -29.9, -58.6, -60.9, -64.8, 1.97, -68.9, -64.5, -80.6, -63.7% and inactive: 14.6%”; in the assay on BT-549 breast (runs of 1998), “active: -58.5, -74.3, -31.2, -75.4, -62.3, -38.7, -29.3, -73.2, -68.5, -56.8, -76.5, -82.7, -18.8, -85.4, -90.3, -76.7, -48.2, -80.3, -58.9, -44.1, -40.5, -32.8, -70.3, -67.4, -45.3%”. In addition, the growth entry is “active: -74, -92.6, -39.8, -51.8, -76.1, -63.8, -96.1, 6.4, -49.2, -37.8, -80.9, -100, -8.08, -10.2, -29.4%” with BT-549 breast (runs of 1999); “active: -100, -98.7, -35.4, -93.1%” with BT-549 breast (runs of 2000); “inactive: 63.2%, 62.7%” in the assay on MDA-MB-435 melanoma (runs of 2006); “inactive: 51.1, 61.1, 64.6, 61.7, 67.2, 65.1, 63.2 (2×), 64.9, 70.6, 68.4, 79.1, 74.5, 67.3, 70.5, 73.6, 82.1, 75.2, 81.9, 84.3, 70.4, 80.3, 83.2, 86.6, 78.3, 78.7, 75.3, 74.6, 77.4, 80.9, 63.5, 66.6, 60, 64.2, 62.3, 82.2, 68.6%” with MDA-MB-435 melanoma (runs of 2007); “inactive: 74.5, 53.6, 55.1, 61.4, 76.7 (2×), 73.6, 74, 73.5, 70.7, 67.7, 74.1, 71.8, 62.2 (2×), 68.1, 33.5, 61, 61.7, 48.5, 52.5, 56.9, 49.5, 43, 49.3, 53.5, 49.4, 62.3, 111, 60.6, 48.3, 47.1, 40.6, 60, 40.3, 45.2, 48.6, 51.5, 41, 53.4, 58.7, 66.6, 71, 76.3, 82.9, 61.5, 69, 50.7, 48.9, 57.7, 54, 66, 65.2, 62.9, 59.2%” in the assay on MDA-MB-435 melanoma (runs of 2008); “inactive: 60.7 (2×), 58.8, 47.3, 59.9, 53 (2×), 65.7 (2×), 61, 65.2 (3×), 59.6, 62.1, 55.1, 57 (2×), 61.8 (2×), 67.5, 66.9, 58.6 (2×), 68, 60.3, 68.3, 58.9 (2×), 50.9, 60.8, 62.3, 61.2, 59.1, 48.2, 65, 80.3, 56.3, 69.4, 64, 64.4 (2×), 61.3 (2×), 75.6, 76, 58.7, 55.7, 65.1 (2×), 52.7, 64.6, 59.5, 56.9, 63.7, 94.4, 73.4, 60.1, 74.1, 57.3, 67.1, 72%” in the assay with MDA-MB-435 melanoma (runs of 2009). For the same compound, the growth entry in the assay on MDA-MB-435 melanoma (runs of 2010) was “inactive: 65.4, 74.9, 57.6 (2×), 64.9, 55.3, 73.7, 73.4, 58.4, 62.1, 63.4, 57.9, 71.2, 60, 57.4, 61.4, 77.5, 52.4, 65.7 (2×), 53.3, 65.1, 56.8, 63, 62.5 (2×), 68.7, 66.6, 57, 45.8, 59.6, 49.3, 62.8, 59.8, 61.3, 59.7, 56.3, 59.4, 62.6, 68, 69.7, 61.8, 66.9, 67.2, 60.8 (2×), 62.9, 58.7%”; with MDA-MB-435 melanoma (runs of 2011), “inactive: 65.1, 60.8, 61.6, 60.7, 67.3, 76.6, 58.3, 67.2, 71.7, 61.9, 59.8 (2×), 61.1 (2×), 59.3, 70.1, 72.8 (2×), 68.1, 68.6, 69.1, 73.8, 68.2, 71.4, 62.9, 69, 53.7, 54.8, 61.3, 55 (2×), 56.9 (2×), 53.4, 53.8, 58.7 (2×), 57.9, 57.3, 58.5, 56.1, 52.1, 57.8, 59.5, 61.5, 49, 55.7, 65.5, 62.1, 71.1, 64.2, 70, 61.8%”; with MDA-MB-435 melanoma (runs of 2012), “inactive: 62.5 (2×), 51.6, 58.3, 51.3, 72.3, 67.6, 55.2, 53, 54.7, 52, 54.8 (2×), 53.7, 54.2, 49.6, 51.4, 52.2, 50.5, 52.9 (2×), 51.8, 49.2, 58.8, 65.1, 62.8, 61.9, 57 (2×), 66.9, 61.1, 64.6, 56.9 (2×), 56, 59.8, 50.6, 62.7, 60.1, 57.6 (2×), 57.7, 63.4, 59.5, 67.7, 69.7, 66.7, 71.7, 69.6, 66.3, 73, 73.6, 70.8, 70.7, 70.5, 48.2, 60, 58.7, 48.1, 57.5, 54.1, 45.7, 53.3, 61.7%”.

The values above are taken from PubChem BioAssay (NCI).
